The campaign covered roughly 310,000 compounds. About 14,000 (4.5%) showed an effect of 50% or more. Effects have a minus sign here. Some of the results follow.
Biological target: human ether-à-go-go-related gene (hERG) potassium channel (human, UniProt Q12809)
Assay: primary screen, population patch clamp on CHO cells stably expressing hERG
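Further: peak tail current of the secondary pulse compared with the same well before compound.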

Chain of human ether-à-go-go-related gene (hERG) potassium channel (Q12809 whole entry, looked up): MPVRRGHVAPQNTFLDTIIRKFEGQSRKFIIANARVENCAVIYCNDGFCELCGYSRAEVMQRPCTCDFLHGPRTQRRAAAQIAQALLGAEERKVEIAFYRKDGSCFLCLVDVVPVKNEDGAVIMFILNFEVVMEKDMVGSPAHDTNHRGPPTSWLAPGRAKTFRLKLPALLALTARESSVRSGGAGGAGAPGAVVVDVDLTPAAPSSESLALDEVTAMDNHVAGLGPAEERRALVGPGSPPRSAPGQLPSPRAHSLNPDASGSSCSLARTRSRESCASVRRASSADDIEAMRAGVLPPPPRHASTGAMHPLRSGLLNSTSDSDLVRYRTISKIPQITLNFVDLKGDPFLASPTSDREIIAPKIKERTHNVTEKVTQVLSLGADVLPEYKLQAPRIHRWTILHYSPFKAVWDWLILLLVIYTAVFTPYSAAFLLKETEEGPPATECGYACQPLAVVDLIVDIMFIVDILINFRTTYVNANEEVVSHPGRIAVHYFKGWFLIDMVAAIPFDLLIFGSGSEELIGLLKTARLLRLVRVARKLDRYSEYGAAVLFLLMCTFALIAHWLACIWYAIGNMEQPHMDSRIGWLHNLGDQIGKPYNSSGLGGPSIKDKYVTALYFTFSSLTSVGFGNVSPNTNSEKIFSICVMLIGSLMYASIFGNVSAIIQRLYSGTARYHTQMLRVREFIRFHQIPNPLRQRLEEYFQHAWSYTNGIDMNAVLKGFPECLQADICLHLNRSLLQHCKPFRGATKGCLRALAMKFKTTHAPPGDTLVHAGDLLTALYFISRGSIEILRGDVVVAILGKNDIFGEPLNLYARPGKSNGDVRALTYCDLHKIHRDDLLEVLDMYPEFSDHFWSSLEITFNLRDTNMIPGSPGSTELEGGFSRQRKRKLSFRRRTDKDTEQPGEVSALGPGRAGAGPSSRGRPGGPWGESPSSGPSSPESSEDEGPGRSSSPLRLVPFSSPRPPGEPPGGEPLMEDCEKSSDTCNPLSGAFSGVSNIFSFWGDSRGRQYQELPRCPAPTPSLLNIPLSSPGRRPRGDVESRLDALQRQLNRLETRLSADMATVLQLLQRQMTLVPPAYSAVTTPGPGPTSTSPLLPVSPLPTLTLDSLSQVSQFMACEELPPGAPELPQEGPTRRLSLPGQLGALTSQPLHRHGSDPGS

SMILES | hERG current change (%, negative = inhibition) at 10uM [%]
Cc1cc2c(OCC(O)CNCc3ccco3)cccc2[nH]1 (stereo not shown) | 19.5
Cc1nn(CCOc2ccccc2)c(=O)n1-c1c(F)cccc1F | -7.44
CCOC(=O)c1cc(-c2ccc(F)cc2)n(CC(=O)NC(C)CC)c1C (stereo not shown) | 12.3
Cc1ccc(C(=O)C(C)OC(=O)c2n[nH]c(=O)c3ccccc23)cc1 (stereo not shown) | -9.64
Cl.OCCNc1nc(N2CCN(c3ccccc3)CC2)nc2ccccc12 | -74.6
CCn1c(CC(=O)Nc2ccccc2F)nnc1SCC(=O)N1CCOCC1 | 10.6
Clc1cccc(N/N=C/c2ccncc2)c1 | -10.2
COc1cccc(CN2CCN(C(=O)CC(C)C)CC2)c1 | -13.1
CCN(CC(=O)Nc1c(F)cccc1F)C(=O)c1ccc2c(c1)OCO2 | 2.6
COc1cc2c(cc1NC(=O)c1cccnc1)CCCC2 | 14.2
Cc1cc(Nc2c(C#N)c(N)nn2C)ccc1F | 6.99
N#CCCn1cc(CNC2CCC(O)CC2)c2ccccc21 (stereo not shown) | 5.19
BrCC(Br)C1CCC(Br)C(Br)C1 (stereo not shown) | 20.6
COC(=O)c1sccc1NC(=O)c1ccccc1Br | -4.82
Cc1ccc(-c2[nH]ncc2C(=O)c2ccc(Br)cc2)c(O)c1 | -9.43
COc1ccc(-n2c(SCC(=O)C(C)(C)C)nc3ccsc3c2=O)cc1 | 6.67
O=C(/C=C/c1ccc(Cl)c([N+](=O)[O-])c1)Nc1cccnc1 | -17.3
CNCC(=O)N1CCN(c2ncc(C(F)(F)F)cc2Cl)CC1.Cl | -22.3
CCCCC(=O)N(Cc1nc2sc(C)c(C)c2c(=O)[nH]1)C1CCCC1 | -13.5
O=C(Nc1ccc(S(=O)(=O)N2CCCC2)cc1)c1ccc(Br)o1 | 14.8
Cc1ccc(CNC(=O)C2CCCCC2C(=O)O)cc1 (stereo not shown) | 0.0308

SMILES | hERG current change (%, negative = inhibition) at 10uM [%]
COc1ccc(CC(=O)Nc2ccc(S(=O)(=O)N3CCOCC3)cc2)cc1 | -33.5
CCCNS(=O)(=O)c1ccc(CCC(=O)N2CCCC2)cc1 | 10.9
CCOc1ccc(NC(=O)c2cc(S(=O)(=O)N3CCCCC3)c[nH]2)cc1 | 21
CCc1ccc(OC(C)C(=O)Nc2ccc(S(=O)(=O)Nc3nccs3)cc2)cc1 (stereo not shown) | 17.7
COc1ccc(/C(N)=N/OC(=O)C2CCCCC2)cc1 | 18.7
O=C(O)C1C2C=CC(C2)C1C(=O)N1CCc2ccccc21 (stereo not shown) | 3.23
CN1CCN(c2nc(-c3ccc(Br)cc3)nnc2-c2ccccc2)CC1 | -63.5
COc1ccc(/C=C2/N=C3CCCCCN3C2=O)cc1OC | 12
O=c1[nH]c(=S)[nH]nc1Cc1ccccc1 | 19.3
CSc1ccc(/C=N/N2CCN(Cc3ccc(C)cc3C)CC2)cc1 | 12.8
COc1ccc(OC)c(NC(=O)CCN2CCN(c3ccccc3)CC2)c1 | -32.1
CC1=C(C(=O)OC(C)C)C(c2c[nH]c3ccccc23)n2ncnc2N1 (stereo not shown) | -0.57
CC(Oc1ccc(Cl)cc1Cl)c1nc(-c2ccc(NC(=O)c3ccco3)cc2)no1 (stereo not shown) | 26.3
C=CCn1c(SCC(=O)Nc2ccc(OC)cc2)nc2c([nH]c3ccccc32)c1=O | 11.8
Cc1cccc2c1-c1sc(C(=O)N3CCc4ccccc4C3)cc1CO2 | -2.75
COC(=O)c1sccc1NC(=O)c1c(-c2ccccc2)noc1C | -26.5
O=C(Nc1ncn[nH]1)c1cc([N+](=O)[O-])ccc1Cl | 18.9
COc1cc(SC)ccc1C(=O)NCCc1c[nH]c2ccccc12 | 2.74
Cc1ccccc1N(CC(=O)NC1CCCC1)C(=O)c1oc(C(C)(C)C)cc1C | 6.63
NNc1ncnc2sc3c(c12)CCC3 | 18.5
COc1ccc(C(CC(=O)c2ccc(C)cc2)C(C#N)C#N)cc1OC (stereo not shown) | -1.33

SMILES | hERG current change (%, negative = inhibition) at 10uM [%]
O=C(NCC1CCCO1)C1CC(=O)N(C2CCCC2)C1 (stereo not shown) | 9.77
CC(=O)NC1CC2CCC(C1)N2 (stereo not shown) | -10.4
O=C(c1ccccc1SCc1ccccc1)N1CCOCC1 | 12.3
CCOC(=O)N1CCN(Cc2cn[nH]c2-c2cc3ccccc3o2)CC1 | -34.4
c1ccc2c(C[C@@H]3CNCCN3CC3CCCCC3)cccc2c1 | 3.16
COc1cccc(CNC(=O)c2cc3c(C)nc4ccccc4c3o2)c1 | -20.8
CCN1CCN(Cc2cc(Br)cc(OC)c2O)CC1 | -20.4
Cc1ccccc1-c1nnnn1C1CCS(=O)(=O)C1 (stereo not shown) | 17.4
CC1CCCC(NC(=O)CSc2ncccn2)C1C (stereo not shown) | 7.79
CC1c2cc3c(cc2CCN1C(=O)c1cccc(F)c1)OCCCO3 (stereo not shown) | 5.89
CCc1c(C)nc(SC/C=C/c2ccccc2)[nH]c1=O | 7.22
CCCC1C2CN(C(C)C)CC=C2C(C#N)=C(N)C1(C#N)C#N (stereo not shown) | -41
O=C(Nc1ccc2c(c1)CCC2)C1COc2ccccc2O1 (stereo not shown) | -7.58
CCCc1c(C(=O)N/N=C/C(C)=C/c2ccccc2)nnn1-c1nonc1N | 8.12
O=C(CCN1C(=O)/C(=C\c2ccccc2)SC1=S)NNC(=O)c1cccnc1 | 10.8
CC1CCC2(CC1)NC(=O)N(CC(=O)c1ccc(Cl)s1)C2=O (stereo not shown) | 19.5
O=C1CN(C(=O)c2ccccc2F)C(c2ccccc2)c2cc(F)ccc2N1 (stereo not shown) | -34.4
O=C(Nc1ccc(C(F)(F)F)cc1)c1cccn(Cc2ccc3c(c2)OC(F)(F)O3)c1=O | 2.4
COc1ccc(NC(=S)N2CCC(C(=O)c3ccc(C)cc3)CC2)c(OC)c1 | 24.7
